The record followed here is patent US20260234258A1 (REPERTOIRE IMMUNE MEDICINES, published 2026).

What is called EC50 (read off the curve) is the concentration giving half of the maximal effect. Read a high EC50 (read off the curve) as lower potency in that assay.

Assay [1] has as its target T1, mouse CD8 (on CD8 T cells of mouse splenocytes) (mouse, UniProt P01731 28-247).
T1 construct: whole, on cells; also called mCD8
Put plainly: flow cytometry on mouse splenocytes, CD8 T cells; bound molecule detected with anti-human kappa; median fluorescence intensity. The method, then:
Anti-mouse CD8-human IL2 molecules were evaluated for their ability to specifically bind and load IL2 on CD8 T cells. Briefly, 1×10⁵ mouse splenocytes were incubated with indicated CD8-IL2 (human FC receptor) molecules from one of the concentrations ranging from 0.05 pM to 500 nM. Anti-mouse CD8 antibody was used as control. Following one hour incubation with molecules, splenocytes were washed twice with RPMI complete medium and once with PBS. The washed splenocytes were stained with anti-TL2 (MQ1-17H12), anti-human kappa (MHK-49) and lineage surface makers CD4(RM4-4), NK1.1(PK136) and CD19(6D5) for 20 minutes, after which the cells were washed and analyzed using flow cytometer. Mean fluorescence intensity data was analyzed using four parameter nonlinear regression method to calculated binding affinity in GraphPad prism.
On the technique in general: Flow cytometry measures light scatter and fluorescence of single cells or particles in a stream.

The target of assay [2] is T2, human CD8 (on CD8 T cells of human PBMC) (human, UniProt P01732 22-235).
T2 construct: The assay used native CD8 on human PBMC; also called hCD8; NP_001139345.1
In words: flow cytometry on human PBMC, CD8 T cells; bound molecule detected with anti-human kappa; MFI. The method, then:
(§1) Anti-human CD8-human IL2 molecules were evaluated for their ability to specifically bind and load IL2 on CD8 T cells. Briefly, […] human PBMC were co-cultured with indicated CD8-IL2 (human FC receptor) molecules from one of the concentrations ranging from 0.05 pM to 0.4 nM. Following one hour incubation with molecules, PBMC were washed twice with RPMI complete medium and washed once with PBS. The washed cells were stained with anti-IL2 (MQ1-17H12), anti-human kappa (MHK-49) and lineage surface markers CD3(UCHT1), CD4(SK3) and NK(HCD56) for 20 minutes, after which the cells were washed and analyzed using a flow cytometer. The binding affinity was quantified and represented as mean fluorescence intensity (MFI).

Assay [3] has as its target T2, human CD8 (on CD8 T cells of human PBMC). In words: cell-based or functional assay.
Assay [4] has the same target. In words: flow cytometry on human PBMC, gated cell types; IL2 loading detected with anti-IL2; MFI. The method, then: as §1
The target is the same in assay [5]. In words: cell-based or functional assay. This is another data set of the same source.

T2 sequence (P01732 22-235 limits assumed): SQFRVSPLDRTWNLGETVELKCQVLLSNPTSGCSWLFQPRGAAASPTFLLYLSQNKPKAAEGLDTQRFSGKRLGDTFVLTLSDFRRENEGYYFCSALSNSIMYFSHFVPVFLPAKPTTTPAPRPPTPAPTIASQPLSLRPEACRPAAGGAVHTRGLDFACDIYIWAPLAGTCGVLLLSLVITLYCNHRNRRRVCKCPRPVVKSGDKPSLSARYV
T1 sequence (P01731 28-247): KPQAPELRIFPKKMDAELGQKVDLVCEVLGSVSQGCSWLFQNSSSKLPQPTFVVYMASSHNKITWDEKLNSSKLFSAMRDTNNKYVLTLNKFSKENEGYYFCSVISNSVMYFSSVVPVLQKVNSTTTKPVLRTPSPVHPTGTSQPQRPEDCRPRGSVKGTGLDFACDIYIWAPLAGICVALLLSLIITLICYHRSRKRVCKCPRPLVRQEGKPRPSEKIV

B1: mCD8 IgG IL2 (LC) (YTS105) (antibody)
heavy: EVQLKESGPGLVQPSQTLSLTCTVSGFSLTSNSVHWVRQPPGKGLEWMGGIWGDGDTDYNSALKSRLSISRDTSKNQVFLKMNSLQTDDTAIYFCTPLIGSWYFDFWGPGTMVTASSASTKGPSVFPLAPSSKSTSGGTAALGCLVKDYFPEPVTVSWNSGALTSGVHTFPAVLQSSGLYSLSSVVTVPSSSLGTQTYICNVNHKPSNTKVDKKV[human IgG1 Fc with L234A L235A N297A P329G (EU numbers) omitted]
light: DIVMTQSPSSLAVSAGERVTLNCKASQNVRNNIAWYQQKPGQSPKLLIYYASYRYTGVPDRFTGDGFGTDFTLAINSVQADDAAFYYCQRIYNSPYTFGAGTKLELIRTVAAPSVFIFPPSDEQLKSGTASVVCLLNNFYPREAKVQWKVDNALQSGNSQESVTEQDSKDSTYSLSSTLTLSKADYEKHKVYACEVTHQGLSSPVTKSFNRGECGGGGSGGGGSGGGGS[about 150 residues omitted]
B1: the “EC50 (read off the curve)” value in assay [1] was about 50 pM.

B2: hCD8 IgG IL 2 (LC) (VH6/VK3) (antibody)
heavy: EVQLVQSGAEVKKPGATVKISCKASGYTFTDFTMHWVQQAPGKGLEWIGLVNPNNGGNIYAEKFQGRVTLTVDTSTSTAYMELSSLRSEDTAVYYCGRVPLYTSHGMDYWGQGTLVTVSSASTKGPSVFPLAPSSKSTSGGTAALGCLVKDYFPEPVTVSWNSGALTSGVHTFPAVLQSSGLYSLSSVVTVPSSSLGTQTYICNVNHKPSNTKVDKKV[human IgG1 Fc with L234A L235A N297A P329G (EU numbers) omitted]
light: EIVLTQSPATLSLSPGERATISCRASESVDSYDINSMHWYQQKPGQAPRLLIYRASHLQSGIPARFSGSGSRTDFTLTISSLEPEDFATYYCQQSNEDPLTFGQGTKLEIKRTVAAPSVFIFPPSDEQLKSGTASVVCLLNNFYPREAKVQWKVDNALQSGNSQESVTEQDSKDSTYSLSSTLTLSKADYEKHKVYACEVTHQGLSSPVTKSFNRGECGGGGSGGGGSGGGGSGGGGS[about 150 residues omitted]
notes: Humanized 02A01 (VH6/VK3) anti-human CD8 IgG with human IL-2 on the C-terminus of each light chain
As for B2, the “EC50 (read off the curve)” value in assay [2] and in assay [4] was about 30 pM throughout. In addition, the “EC50 of Proliferation (percentage Ki67), CD8+ T cells” value in assay [3] stood at 55.1 pM. Also, the “EC50 pSTAT5 Activation, CD8+ T cells” value in assay [5] is 0.246 pM.
